# Experiments:
# [1] = biological target: T1, Recombinant Human β-NGF (human, UniProt P01138 part only, limits assumed); assay: Biacore SPR
# T1 construct: Bought reagent used in the Biacore analyses
# Procedure: (§1) The BIACORE assay (Biacore, Inc, Piscataway, N.J.) determines the affinity of antibodies or DVD-Ig with kinetic measurements of on-rate and off-rate constants. Binding of antibodies or DVD-Ig to a target antigen (for example, a purified recombinant target antigen) is determined by surface plasmon resonance-based measurements with a Biacore® 1000 or 3000 instrument (Biacore® AB, Uppsala, Sweden) using running HBS-EP (10 mM HEPES [pH 7.4], 150 mM NaCl, 3 mM EDTA, and 0.005% surfactant P20) at 25° C. All chemicals are obtained from Biacore® AB (Uppsala, Sweden) or otherwise from a different source as described in the text. For example, approximately 5000 RU of goat anti-mouse IgG, (Fcγ), fragment specific polyclonal antibody (Pierce Biotechnology Inc, Rockford, Ill.) diluted in 10 mM sodium acetate (pH 4.5) is directly immobilized across a CM5 research grade biosensor chip using a standard amine coupling kit according to manufacturer's instructions and procedures at 25 μg/ml. Unreacted moieties on the biosensor surface are blocked with ethanolamine. Modified carboxymethyl dextran surface in flowcell 2 and 4 is used as a reaction surface. Unmodified carboxymethyl dextran without goat anti-mouse IgG in flow cell 1 and 3 is used as the reference surface. For kinetic analysis, rate equations derived from the 1:1 Langmuir binding model are fitted simultaneously to association and dissociation phases of all eight injections (using global fit analysis) with the use of Biaevaluation 4.0.1 software. Purified antibodies or DVD-Ig are diluted in HEPES-buffered saline for capture across goat anti-mouse IgG specific reaction surfaces. Antibodies or DVD-Ig to be captured as a ligand (25 μg/ml) are injected over reaction matrices at a flow rate of 5 μl/min. The association and dissociation rate constants, kₘ (M⁻¹s⁻¹) and koff (s⁻¹) are determined under a continuous flow rate of 25 μl/min. Rate constants are derived by making kinetic binding measurements at different antigen concentrations ranging from 10-200 nM. The equilibrium dissociation constant (M) of the reaction between antibodies or DVD-Igs and the target antigen is then calculated from the kinetic rate constants by the following formula: KD=koff/kₒₙ. Binding is recorded as a function of time and kinetic rate constants are calculated.
# [2] = biological target: T2, Recombinant Human TNF-α/TNFSF1A (human, UniProt P01375 part only); assay: Biacore SPR
# T2 construct: Bought reagent for Biacore; also called huTNFα
# Procedure: as §1
# [3] = biological target: T2, Recombinant Human TNF-α/TNFSF1A; assay: cell-based or functional assay
# [4] = biological target: NGF (Neuroscreen-1 bioassay); assay: cell-based or functional assay
# [5] = biological target: T3, Recombinant Human SOST (human, UniProt Q9BQB4 24-213); assay: Biacore SPR
# T3 construct: R&D reagent in Biacore; also called sclerostin; Human sclerostin (Abbott PR-1261069)
# T3 sequence (looked up): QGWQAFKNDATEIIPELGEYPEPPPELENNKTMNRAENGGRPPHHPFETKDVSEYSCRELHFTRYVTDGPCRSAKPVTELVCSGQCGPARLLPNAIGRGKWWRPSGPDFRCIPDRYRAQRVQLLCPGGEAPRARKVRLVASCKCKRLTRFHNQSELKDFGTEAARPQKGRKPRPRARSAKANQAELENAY
# Procedure: as §1
# T2 sequence (P01375 77-233 limits assumed): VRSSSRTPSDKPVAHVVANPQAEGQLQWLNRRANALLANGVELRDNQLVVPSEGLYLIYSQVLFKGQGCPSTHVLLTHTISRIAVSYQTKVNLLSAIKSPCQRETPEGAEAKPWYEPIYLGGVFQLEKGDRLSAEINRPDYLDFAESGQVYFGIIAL
# T1 sequence (P01138 122-239 limits assumed): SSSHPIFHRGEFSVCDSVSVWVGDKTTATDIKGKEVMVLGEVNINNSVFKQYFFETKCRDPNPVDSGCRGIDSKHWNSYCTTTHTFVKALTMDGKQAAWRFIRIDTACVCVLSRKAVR
Binder,Kd [1] [nM],koff [1] [s⁻¹],kon [1] [M⁻¹ s⁻¹],Kd [2] [nM],koff [2] [s⁻¹],kon [2] [M⁻¹ s⁻¹],N-terminal VD TNFα Neutralization Assay EC50 nM (L929 cells) [3] [nM],"N-Terminal VD NGF Inhibition Assay EC50 pM (ERK1/2 phosphorylation, Neuroscreen-1 cells) [4] [pM]",Kd [5] [nM],koff [5] [s⁻¹],kon [5] [M⁻¹ s⁻¹]
"DVD1250 (bispecific antibody, human IgG1, kappa, constant regions from vectors V1/V2; also called DVD1250H; DVD1250L) heavy: QVQLVESGGGVVQPGRSLRLSCAASGFTFSSYDMHWVRQAPGKGLEWVAVIWSDGSIKYYADSVKGRFTISRDNSKNTLYLQMNSLRAEDTAVYYCAREVESAMGGFYYNGMDVWGQGTTVTVSSASTKGPQVQLQESGPGLVKPSETLSLTCTVSGFSLIGYDLNWIRQPPGKGLEWIGIIWGDGTTDYNSAVKSRVTISKDTSKNQFSLKLSSVTAADTAVYYCARGGYWYATSYYFDYWGQGTLVTVSS[gap - human IgG1 constant region] light: DIQMTQSPSSLSASVGDRVTITCRASQGIRIDLGWYQQKPGKAPKRLIYAASTLQSGVPSRFSGSGSGTEFIFTISSLQPEDFASYYCLQHKSYPLTFGGGTKVEIKRTVAAPDIQMTQSPSSLSASVGDRVTITCRASQSISNNLNWYQQKPGKAPKLLIYYTSRFHSGVPSRFSGSGSGTDFTFTISSLQPEDIATYYCQQEHTLPYTFGQGTKLEIKRTVAAPSVFIFPPSDEQLKSGTASVVCLLNNFYPREAKVQWKVDNALQSGNSQESVTEQDSKDSTYSLSSTLTLSKADYEKHKVYACEVTHQGLSSPVTKSFNRGEC",2.93,1.02e-05,3480,0.0214,4.61e-05,2.16e+06,0.02,,,,
"DVD1259 (bispecific antibody, human IgG1, kappa, constant regions from vectors V1/V2; also called DVD1259H; DVD1259L) heavy: QVQLQESGPGLVKPSETLSLTCTVSGFSLIGYDLNWIRQPPGKGLEWIGIIWGDGTTDYNSAVKSRVTISKDTSKNQFSLKLSSVTAADTAVYYCARGGYWYATSYYFDYWGQGTLVTVSSASTKGPEVQLVESGGGLIQPGGSLRLSCAASGFTVSRNYMSWVRQAPGKGLEWVSVIYSGDRTYYADSVKGRFTISRDNSKNTLYLQMNSLRAEDTAVYYCARGEGGFDYWGQGTLVTVSS[gap - human IgG1 constant region] light: DIQMTQSPSSLSASVGDRVTITCRASQSISNNLNWYQQKPGKAPKLLIYYTSRFHSGVPSRFSGSGSGTDFTFTISSLQPEDIATYYCQQEHTLPYTFGQGTKLEIKRTVAAPEIVMTQSPATLSVSPGERATLSCRASQSVSSNLAWYQQKPGQAPRLLIHGASIRATGLPARFSGSGSGTEFTLTISSLQSEDFAVYYCQQYNYWWTFGQGTKVEIKRTVAAPSVFIFPPSDEQLKSGTASVVCLLNNFYPREAKVQWKVDNALQSGNSQESVTEQDSKDSTYSLSSTLTLSKADYEKHKVYACEVTHQGLSSPVTKSFNRGEC",0.0733,6.07e-06,82800,0.0733,6.07e-06,,,27,,,
"DVD1257 (bispecific antibody, human IgG1, kappa, constant regions from vectors V1/V2; also called DVD1257H; DVD1257L) heavy: EVQLQQSGPELVTPGASVKISCKASGYTFTDHYMSWVKQSHGKSLEWIGDINPYSGETTYNQKFKGTATLTVDKSSSIAYMEIRGLTSEDSAVYYCARDDYDASPFAYWGQGTLVTVSAASTKGPEVQLVESGGGLIQPGGSLRLSCAASGFTVSRNYMSWVRQAPGKGLEWVSVIYSGDRTYYADSVKGRFTISRDNSKNTLYLQMNSLRAEDTAVYYCARGEGGFDYWGQGTLVTVSS[gap - human IgG1 constant region] light: DVQMIQSPSSLSASLGDIVTMTCQASQGTSINLNWFQQKPGKAPKLLIYGSSNLEDGVPSRFSGSRYGTDFTLTISSLEDEDLATYFCLQHSYLPYTFGGGTKLEIKRTVAAPEIVMTQSPATLSVSPGERATLSCRASQSVSSNLAWYQQKPGQAPRLLIHGASIRATGLPARFSGSGSGTEFTLTISSLQSEDFAVYYCQQYNYWWTFGQGTKVEIKRTVAAPSVFIFPPSDEQLKSGTASVVCLLNNFYPREAKVQWKVDNALQSGNSQESVTEQDSKDSTYSLSSTLTLSKADYEKHKVYACEVTHQGLSSPVTKSFNRGEC",,,,0.142,2.66e-05,188000,,,0.0312,0.000215,6.51e+06
"DVD1232 (bispecific antibody, human IgG1, kappa, constant regions from vectors V1/V2; also called DVD1232H; DVD1232L) heavy: QVQLKESGPGLVAPSQSLSITCTVSGFSLTDYGVNWVRQPPGKGLEWLGMIWGDGSTDYDSTLKSRLSISKDNSKSQIFLKMNSLQTDDTARYYCAREWHHGPVAYWGQGTLVTVSAASTKGPQVQLQESGPGLVKPSETLSLTCTVSGFSLIGYDLNWIRQPPGKGLEWIGIIWGDGTTDYNSAVKSRVTISKDTSKNQFSLKLSSVTAADTAVYYCARGGYWYATSYYFDYWGQGTLVTVSS[gap - human IgG1 constant region] light: DIVMTQSHKFMSTTVGDRVSITCKASQAVSSAVAWYQQKPGQSPKLLIYWASTRHTGVPDRFTGSGSVTDFTLTIHNLQAEDLALYYCQQHYSTPFTFGSGTKLEIKRTVAAPDIQMTQSPSSLSASVGDRVTITCRASQSISNNLNWYQQKPGKAPKLLIYYTSRFHSGVPSRFSGSGSGTDFTFTISSLQPEDIATYYCQQEHTLPYTFGQGTKLEIKRTVAAPSVFIFPPSDEQLKSGTASVVCLLNNFYPREAKVQWKVDNALQSGNSQESVTEQDSKDSTYSLSSTLTLSKADYEKHKVYACEVTHQGLSSPVTKSFNRGEC",,,,0.0535,0.000104,1.94e+06,,,,,

# Reference: patent publication US20110212094A1 (AbbVie / Abbott, published 2011)
